The values below come from article PMC4336329 (PLoS ONE, 2015).

The whole screen tested about 310,000 compounds, of which about 2,200 (0.71%) showed an effect of 50% or more. The effect is printed as a negative number. The list shows a part of the results.

The target of the assay is human ether-à-go-go-related gene (hERG) potassium channel (human, UniProt Q12809). Put plainly: primary screen, population patch clamp on CHO cells stably expressing hERG.
human ether-à-go-go-related gene (hERG) potassium channel, sequence (Q12809 whole entry, looked up): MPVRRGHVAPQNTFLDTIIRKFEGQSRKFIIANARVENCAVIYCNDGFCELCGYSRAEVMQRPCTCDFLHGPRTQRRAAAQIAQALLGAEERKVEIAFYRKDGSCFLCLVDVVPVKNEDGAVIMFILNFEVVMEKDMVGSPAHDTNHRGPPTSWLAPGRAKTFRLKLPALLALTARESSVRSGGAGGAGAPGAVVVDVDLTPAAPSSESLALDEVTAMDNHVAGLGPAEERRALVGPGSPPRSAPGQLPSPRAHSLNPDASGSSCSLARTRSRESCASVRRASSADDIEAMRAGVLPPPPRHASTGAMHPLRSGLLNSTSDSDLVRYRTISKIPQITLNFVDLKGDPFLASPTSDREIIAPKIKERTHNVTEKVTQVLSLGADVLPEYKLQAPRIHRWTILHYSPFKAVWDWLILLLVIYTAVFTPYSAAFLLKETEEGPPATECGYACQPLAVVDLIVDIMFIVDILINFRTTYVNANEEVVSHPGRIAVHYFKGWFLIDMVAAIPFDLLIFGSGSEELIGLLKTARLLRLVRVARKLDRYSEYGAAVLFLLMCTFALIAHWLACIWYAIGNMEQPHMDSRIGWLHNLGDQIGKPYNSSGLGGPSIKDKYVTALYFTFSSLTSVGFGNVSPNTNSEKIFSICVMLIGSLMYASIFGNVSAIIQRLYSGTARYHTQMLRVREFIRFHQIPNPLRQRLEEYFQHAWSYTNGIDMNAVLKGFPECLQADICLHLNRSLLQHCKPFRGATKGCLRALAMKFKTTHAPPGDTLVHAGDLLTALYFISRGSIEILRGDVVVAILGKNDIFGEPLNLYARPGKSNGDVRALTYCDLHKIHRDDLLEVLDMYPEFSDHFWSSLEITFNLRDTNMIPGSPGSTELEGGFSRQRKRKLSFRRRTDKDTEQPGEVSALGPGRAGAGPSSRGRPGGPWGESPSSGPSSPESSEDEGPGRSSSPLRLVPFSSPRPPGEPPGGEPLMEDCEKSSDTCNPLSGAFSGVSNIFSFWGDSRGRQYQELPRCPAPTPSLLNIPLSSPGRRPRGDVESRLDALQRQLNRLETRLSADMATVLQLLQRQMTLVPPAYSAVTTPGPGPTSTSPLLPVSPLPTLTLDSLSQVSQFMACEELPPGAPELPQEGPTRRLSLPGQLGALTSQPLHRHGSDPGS
For the molecule `CC1(C)CC(NC(=O)c2ccc(Cl)c(S(=O)(=O)N(Cc3ccccc3)c3ccccc3)c2)CC(C)(C)N1`, the “hERG current change (%, negative = inhibition) at 1uM” value is -3.46%. For the molecule `[O-][Cl+3]([O-])([O-])[O-].c1ccc(-c2[nH]c(-c3ccccc3)[n+](CC3CO3)c2-c2ccccc2)cc1` (centres unmarked), the “hERG current change (%, negative = inhibition) at 1uM” value is given as -2.8%. For `O=S(=O)(c1ccc(C(F)(F)F)cc1)N1CCN(CCc2ccccc2)CC1` the value was -2.3%. For `CCOc1ccc(NC(=O)CN(C)C(=O)c2ccc(N3CCCCC3)c([N+](=O)[O-])c2)cc1OCC` the value was -8.96%; for `CC(C)(C)NC(=S)N/N=C/c1c(Cl)cccc1Cl`, 15.1%; for `CN1CCC(=NNC(=O)CSCc2ccccc2)CC1`, 4.33%. In the case of `Clc1ccccc1Nc1c2c(nc3ncnn13)CCC2`, the “hERG current change (%, negative = inhibition) at 1uM” value is given as -2.68%. Then `CN(CC(=O)Nc1ccc(Cl)c(C(F)(F)F)c1)C(=O)CCc1nc2ccccc2c(=O)[nH]1`, with -0.246%; and `CC(OC(=O)CCCNC(=O)c1ccc(Cl)cc1)C(=O)N(C)Cc1ccccc1` (centres unmarked), with -11.2%; and `COC(=O)c1cncc(O)c1`, with 3.22%. On to `O=S(=O)(c1ccc(Br)s1)N1CCN(c2ccnc3cc(Cl)ccc23)CC1`, for which the “hERG current change (%, negative = inhibition) at 1uM” value was 6.07%.

With `CCCCOc1ccccc1C1C(C(=O)OC)=CN(CC)C=C1C(=O)OC`, the “hERG current change (%, negative = inhibition) at 1uM” value is given as -0.63%.

Take `CCc1ccc(CN(C)C(=O)c2cc(COc3cc(C)c(Cl)c(C)c3)on2)nc1`: the “hERG current change (%, negative = inhibition) at 1uM” value turned out to be 18.9%. As to `CC(NC(=O)c1ccnc(C(C)(C)C)c1)c1ccccc1` (centres unmarked), the “hERG current change (%, negative = inhibition) at 1uM” value came to 23.3%. Then `COc1ccc(OC)c(C(=O)c2ccccn2)c1`, with 9.76%; and `CCCCN(CC)C(=O)c1ccccc1Oc1ccccc1`, with 5.27%. In the case of `CC(=O)NS(=O)(=O)c1ccc2sc(C)nc2c1`, the “hERG current change (%, negative = inhibition) at 1uM” value is 8.85%. With `O=C(Nc1ccccc1SCC1CSc2nc3ccccc3c(=O)n21)c1cccc(Cl)c1` (centres unmarked), the “hERG current change (%, negative = inhibition) at 1uM” value is on record as -49.6%. Then `CNc1nc(-c2ccccc2)cc(C(F)(F)F)c1C#N`, with 12.4%. For `Cc1noc(C)c1COC(=O)CCc1ccc(S(=O)(=O)N2CCCCC2)cc1` the value was 2.97%; for `O=C1NC(=O)C(Cc2ccccc2)(c2cccnc2)N1` (centres unmarked), 13.1%; for `Cc1cc(Br)ccc1NC(=O)C1CCN(S(=O)(=O)c2cnc[nH]2)CC1`, 12.3%. `COc1cccc(Nc2nc(-c3ccccc3)nc3ccccc23)c1`: the “hERG current change (%, negative = inhibition) at 1uM” value is 10.7%. For `CC(=O)Nc1ccc(Nc2nc(C)cc(C)n2)cc1`, the “hERG current change (%, negative = inhibition) at 1uM” value turned out to be 15.7%.

Turning to `CCCn1c(SCC(=O)Nc2cc(S(=O)(=O)N3CCCCC3)ccc2C)n[nH]c1=O`, the “hERG current change (%, negative = inhibition) at 1uM” value was found to be 3.05%. Turning to `CCCC(=O)Nc1cc(C(=O)O)ccc1Sc1ccc(C)cc1`, the “hERG current change (%, negative = inhibition) at 1uM” value came out at 10.9%. Then `CCOC(=O)CNc1cccc(C(F)(F)F)c1`, with 5.6%; and `c1coc(CN2CNc3nc4ccccc4n3C2)c1`, with 7.88%; and `S=c1[nH]ccn1CCc1ccccc1`, with 13.6%. Then `Cc1onc(-c2ccccc2)c1C(=O)Nc1ccc(Br)cc1Cl`, with 14.5%. Then `O=C(COC(=O)CCSc1ccccc1)NCc1ccc(F)cc1`, with 11.2%; and `COc1ccc(Nc2ncnc3nc[nH]c23)cc1OC`, with 12.4%; and `Cc1noc(C(F)(F)F)c1C(=O)NNC(=O)c1cccc(C(F)(F)F)c1`, with 14.8%. On to `CSc1nc(N2CCN(Cc3ccc4c(c3)OCO4)CC2)c2ccccc2n1`, for which the “hERG current change (%, negative = inhibition) at 1uM” value is reported as -1.48%. Take `O=C(Nc1nc2c(s1)CCCC2)c1cc(-c2ccccc2)nc2ccccc12`: the “hERG current change (%, negative = inhibition) at 1uM” value is 5.45%. In the case of `CC(NCC(O)c1ccc([N+](=O)[O-])cc1)C12CC3CC(CC(C3)C1)C2` (centres unmarked), the “hERG current change (%, negative = inhibition) at 1uM” value is -35.4%.

With `Cc1ccc(CNC(=O)CCNC(=O)c2ccc(Br)o2)cc1`, the “hERG current change (%, negative = inhibition) at 1uM” value turned out to be 4.99%. Then `COc1cccc2sc(NNC(=O)C3COc4ccccc4O3)nc12` (centres unmarked), with 12.8%; and `CC1(C)CC(=O)C(C=Nc2cccnc2/N=C/C2=C(O)CC(C)(C)CC2=O)=C(O)C1`, with 7.45%; and `COc1c(Br)cc(Br)cc1/C=C1/C(=O)N=C(N)N1C`, with 8.09%. Take `Cc1ccc(S(=O)(=O)N2[C@@H](c3ccccc3F)C(C(=O)O)=CC[C@H]2c2ccc(Cl)cc2)cc1`: the “hERG current change (%, negative = inhibition) at 1uM” value amounted to 6.33%.

On to `Cn1ncc(Cl)c1C(=O)NCc1ccco1`, for which the “hERG current change (%, negative = inhibition) at 1uM” value is listed as 7.79%. Then `CC(C)=NNC(=O)CN1C(=O)NC2NC(=O)NC21` (centres unmarked), with 8.02%. In the case of `CCC(=O)c1c[nH]c(C(=O)NCC2CCCO2)c1` (centres unmarked), the “hERG current change (%, negative = inhibition) at 1uM” value is recorded as 6.8%.
